Data: paper PMC4336329 (PLoS ONE, 2015)
About 14,000 (4.5%) of roughly 310,000 compounds showed an effect of 50% or more. Effects have a minus sign here. The list shows a part of the results.

These molecules were tested against human ether-à-go-go-related gene (hERG) potassium channel (human, UniProt Q12809) (assay: primary screen, population patch clamp on CHO cells stably expressing hERG).
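Also: peak tail current of the secondary pulse compared with the same well before compound.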

Chain of human ether-à-go-go-related gene (hERG) potassium channel (Q12809 whole entry, looked up): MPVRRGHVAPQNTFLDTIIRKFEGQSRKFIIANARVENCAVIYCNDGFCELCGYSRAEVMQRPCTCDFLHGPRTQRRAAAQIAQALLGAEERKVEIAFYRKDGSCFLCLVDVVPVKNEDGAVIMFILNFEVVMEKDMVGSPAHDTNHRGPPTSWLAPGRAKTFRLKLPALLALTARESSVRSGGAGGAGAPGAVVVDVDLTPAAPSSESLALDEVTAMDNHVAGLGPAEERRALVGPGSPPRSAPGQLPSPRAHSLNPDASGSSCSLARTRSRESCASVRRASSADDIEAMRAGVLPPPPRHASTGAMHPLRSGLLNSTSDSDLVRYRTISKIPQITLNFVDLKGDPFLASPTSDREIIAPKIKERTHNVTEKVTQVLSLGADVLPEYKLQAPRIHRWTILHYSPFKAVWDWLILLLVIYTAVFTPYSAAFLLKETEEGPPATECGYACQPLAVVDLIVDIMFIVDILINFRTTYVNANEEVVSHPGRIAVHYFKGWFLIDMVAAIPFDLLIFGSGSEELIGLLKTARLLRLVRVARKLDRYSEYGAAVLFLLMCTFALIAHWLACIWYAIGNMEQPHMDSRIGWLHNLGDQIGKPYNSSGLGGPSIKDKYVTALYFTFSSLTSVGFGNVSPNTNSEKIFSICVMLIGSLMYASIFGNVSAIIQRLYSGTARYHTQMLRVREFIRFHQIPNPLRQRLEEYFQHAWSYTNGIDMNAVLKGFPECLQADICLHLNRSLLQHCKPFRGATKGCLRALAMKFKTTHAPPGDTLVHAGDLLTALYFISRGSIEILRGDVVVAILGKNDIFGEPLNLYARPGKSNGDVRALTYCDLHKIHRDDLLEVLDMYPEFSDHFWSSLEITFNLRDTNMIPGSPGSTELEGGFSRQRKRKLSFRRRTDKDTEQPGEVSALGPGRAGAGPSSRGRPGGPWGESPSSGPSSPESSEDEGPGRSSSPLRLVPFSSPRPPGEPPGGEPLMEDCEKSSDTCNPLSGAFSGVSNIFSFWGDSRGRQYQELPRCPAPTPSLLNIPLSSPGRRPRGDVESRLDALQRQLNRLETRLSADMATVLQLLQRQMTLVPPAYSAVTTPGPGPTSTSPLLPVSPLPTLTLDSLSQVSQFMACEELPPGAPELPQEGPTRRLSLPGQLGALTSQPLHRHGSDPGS

Structure (SMILES)	hERG current change (%, negative = inhibition) at 10uM [%]
COc1ccc(OC)c(-c2cc(C(=O)N3CCN(c4ccccc4)CC3)no2)c1	-7.57
O=C(OCC(=O)N1CCN(S(=O)(=O)c2ccccc2)CC1)c1ccc([N+](=O)[O-])o1	-14.4
N#CCSc1nnc(CNc2cccc(Cl)c2)o1	5.28
O=[N+]([O-])c1c(NCCCO)cc(Sc2nc3ccccc3s2)c2nonc12	7.09
O=C(COc1ccc(Cl)cc1)NCc1nnc(SCC(=O)Nc2ccc3c(c2)OCCO3)o1	-5.01
Cc1cc(=O)oc(C)c1C(=O)NCCc1ccc(F)cc1	-6.33
CCOc1ccc(OCCCCn2cnc3ccccc3c2=O)cc1	19.2
Cc1cccc(-c2nsc(SCC(=O)NCc3ccc4c(c3)OCO4)n2)c1	-2.14
CCCCOC(=O)c1ccc(NC(=O)C(=O)NCc2ccncc2)cc1	-8.29
C=CCN1C(=O)c2ccc(C(=O)NCC(c3ccccc3)N(C)C)cc2C1=O (stereo not drawn)	5.78
CCn1ncc(Cl)c1C(=O)Nc1cc([N+](=O)[O-])ccc1OC	2.58
C=CCNCCOCCSc1ccc(Cl)cc1.O=C(O)C(=O)O	-28.9
NC(=O)C1CCN(C(=O)CC2C(=O)NCCN2Cc2cccc(Oc3ccccc3)c2)CC1 (stereo not drawn)	9.11
COc1ccc(N=C2CCCN2CC(N)=O)cc1.Cl	-0.486
COc1ccc(C(=O)Nc2cc3c4c(c2)C(C)C(=O)N4CCC3)cc1OC (stereo not drawn)	-4.01
CC1c2ccsc2CCN1S(=O)(=O)c1cccs1 (stereo not drawn)	-13.2
CCN1CCN(CCNC(=O)c2ccc(/C=C3/Sc4ccccc4N(Cc4cccc(Cl)c4)C3=O)cc2)CC1	11.4
CCOc1ccccc1NC(=O)c1cc(S(=O)(=O)N2CCC3(CC2)OCCO3)ccc1F	-6.07
C=C1CCN([C@H](C(=O)Nc2ccc(OC)cc2)C(C)C)S(=O)(=O)c2ccccc21	-8.73
COc1ccc(Cl)c2sc(N3CCN(C(=O)C4=COCCO4)CC3)nc12	-15.7
CCOc1cccc2sc(N(CCN(CC)CC)C(=O)c3ccc(S(=O)(=O)N4CCCC4)cc3)nc12.Cl	-24.2

Structure (SMILES)	hERG current change (%, negative = inhibition) at 10uM [%]
CCn1cc(C(=O)N2CCCC2)c(=O)c2cc(S(=O)(=O)N3CCOCC3)ccc21	19.1
Nc1ccc(C(=O)OCc2nc3cc4ccccc4cc3[nH]2)cc1	-11.2
CCOC(=O)c1sc(NC(=O)c2cc3n(n2)C(C(F)(F)F)CC(c2cccs2)N3)c(C(=O)OCC)c1C (stereo not drawn)	2.85
COCCNC(=O)CCc1c(C)nc2c(c(C)nn2-c2ccc(C)c(C)c2)c1C	-3.85
Cc1cccc(OCC(=O)O/N=C(\N)c2ccccn2)c1	9
Cc1ccccc1C(=O)c1cccn1CC(=O)NC(C)c1ccccc1 (stereo not drawn)	5.18
CCCCn1c(N)c(N(CCC(C)C)C(=O)c2cc(-c3ccco3)nc3ccccc23)c(=O)[nH]c1=O	7.31
CCOC(CNC(=O)C1CCN(S(=O)(=O)c2ccc3nc4c(c(C(=O)O)c3c2)CC(C)CC4)CC1)OCC (stereo not drawn)	0.872
COc1ccc2[nH]c(C(=O)N/N=C/c3ccccc3OC)cc2c1	-3.5
O=C(NC(=S)Nc1ccc(CN2CCOCC2)cc1)c1ccccc1[N+](=O)[O-]	3.04
Cc1c(N=C2NC(=O)C(CC(=O)Nc3ccccc3)S2)c(=O)n(-c2ccccc2)n1C (stereo not drawn)	-0.455
CN(Cc1ccccc1)C(=O)c1[nH]cnc1C(=O)N[C@@H](Cc1ccccc1)C(=O)OCc1ccccc1	4.63
COc1ccc(C(=O)NC(=O)Nc2cc(C)ccn2)cc1	3.99
N#Cc1cccc(C#N)c1N1CCC(C#N)CC1	8.14
O=[N+]([O-])c1ccc(N2CCN(Cc3cccc([N+](=O)[O-])c3)CC2)cc1	-71.8
CC(=O)N1N=C2c3ccccc3CCC2C1c1cccs1 (stereo not drawn)	-2.38
CCn1c(SC)nnc1C1CCCN(CC(=O)Nc2ccccc2N2CCOCC2)C1 (stereo not drawn)	-5.55
CC(=O)Nc1ccc(C(=O)CSc2ncn(-c3ccccc3)n2)cc1	5.72
CCC1(c2ccc(F)cc2)NC(=O)N(CC(=O)N2CCc3ccccc3C2)C1=O (stereo not drawn)	-7.25
CCCOC(=O)Nc1ccc(N2CCCCC2)cc1	-11.7
COc1ccc(S(=O)(=O)c2nnn(-c3cccc(Cl)c3)c2N)cc1	6.97
